Hit rate of the full screen: of about 410,000 compounds, about 1,200 (0.29%) were called active. The shares of active, inactive and inconclusive entries below differ from those in the screen. The call rests on the fitted dose curve; in most records, active means well fitted activation curve with a large enough effect; inconclusive means small, poorly fitted or top-dose-only effect; inactive means flat fitted curve, though single readings scatter. Where the call is inconclusive, the potency comes from a doubtful curve fit.
Assay: qHTS of Nrf2 Activators; further: nearly all actives have a fitted effect of over 65% in size; on activation: % of control where 0% means no effect
Conditions: AREc32 ARE-luciferase reporter (MCF7-derived line), luminescence, 24 h; activation: at 46.1 µM (top of the series)
Outline: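 AREc32_Fluc, 1000 cells/well, OPTI-MEM + 5% FBS, o/n 37 deg C 5% CO2; 23 nL cpd by pin tool, 24 hr; Steady-Glo 30 min RT, luminescence.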
For `CCOC(=O)C1=C(COC(=O)c2cccc(N(C)C)c2)NC(=O)NC1C` (configuration not stated), the “activation” value was inactive: 0.54%.
In the case of `Cc1ccc(NC(=O)/C=C/c2cccs2)c([N+](=O)[O-])c1`, the Potency is reported as inconclusive: 3.16 µM [activator, full curve, poor fit].
With `Cc1ccsc1C(=O)Nc1ccc(F)c([N+](=O)[O-])c1` the Potency was inconclusive: 17.8 µM [activator, single point].
With `O=C(/C=C/c1cccs1)Nc1nncs1` the Potency was inconclusive: 17.8 µM [activator, single point].
For `CC(C)OC(=O)n1c(=S)oc2ccccc21`, the “activation” value was inactive: 1.83%.
With `COC(=O)c1oc2ccccc2c1N` the “activation” value was inactive: 3.2%.
For `CN(C)c1ccc(C(=O)/C=C/c2ccco2)cc1`, the Potency was inconclusive: 14.1 µM [activator, single point].
In the case of `O=C(Nc1ccccc1)N1CCCN(c2nccc(C(F)(F)F)n2)CC1`, the “activation” value is reported as inactive: -0.953%.
For `COc1ccc(S(=O)(=O)Nc2cc3c(cc2NCc2ccccc2)n(C)c(=O)n3C)cc1`, the Potency was active: 11.2 µM.
In the case of `Cc1cc(C)nc(-n2nc(C)cc2NC(=O)CN2CCCC(C)C2)n1` (configuration not stated), the “activation” value is reported as inactive: -1.43%.
With `S=C(NCc1ccco1)Nc1ccc(Br)cn1` the Potency was inconclusive: 11.2 µM [activator, partial curve, poor fit].
For `COc1cccc(C(C)NC(=O)Nc2ccccc2Cl)c1` (configuration not stated), the “activation” value was inactive: -2.5%.
For `CCOC(=O)CCc1ccc(NC(=O)/C=C/c2ccc([N+](=O)[O-])o2)cc1`, the Potency was inconclusive: 3.55 µM [activator, single point].
In the case of `COc1ccc2ccccc2c1/C=N/NC(=O)CC1(C)OCCCO1`, the Potency is reported as inconclusive: 10 µM [activator, partial curve].
In the case of `CSc1nc(Oc2ccc3ccccc3c2)c2sccc2n1`, the Potency is reported as inconclusive: 1.41 µM [activator, full curve, poor fit].
For `CC(/C=C/c1ccco1)=N\NC(=O)C(O)c1ccccc1` (configuration not stated), the Potency was inconclusive: 22.4 µM [activator, single point].
In the case of `N#Cc1ccccc1NC(=O)c1cnc(N2CCOCC2)c2ccccc12`, the Potency is reported as inconclusive: 11.2 µM [activator, partial curve].
For `CCn1c(/C=C/c2cccc([N+](=O)[O-])c2)nc2ccccc2c1=O`, the Potency was inconclusive: 12.6 µM [activator, partial curve, poor fit].
With `Cc1ccc(SC(CC(=O)c2ccc(C)cc2)C(=O)O)cc1` (configuration not stated) the Potency was inconclusive: 22.4 µM [activator, single point].
In the case of `COc1cc(Cl)cc2c1Sc1ccccc1/C2=C/CCN(C)C`, the Potency is reported as inconclusive: 2.24 µM [activator, partial curve, poor fit].
In the case of `O=C1C=CC(=O)N1c1ccc(-c2nc3ccccc3o2)cc1`, the Potency is reported as inconclusive: 15.8 µM [activator, single point].
In the case of `Clc1cccc(Cl)c1Cn1cnc2c(NCc3ccco3)ncnc21`, the Potency is reported as inconclusive: 12.6 µM [activator, partial curve, poor fit].
For `O=C1OC(/C(=C\Nc2ccc(F)cc2F)[N+](=O)[O-])c2ccccc21` (configuration not stated), the Potency was inconclusive: 25.1 µM [activator, single point].
In the case of `O=C(Nc1ccccc1O)c1csc2c1CCCC2`, the Potency is reported as inconclusive: 11.2 µM [activator, partial curve].
With `N#C/C(=C/c1ccc(N2CCOCC2)o1)c1ccc(Cl)cc1` the Potency was active: 12.6 µM.
In the case of `CC(C)OCCCNC(=O)c1ccc2c(c1)S(=O)(=O)c1ccccc1C2=O`, the Potency is reported as inconclusive: 11.2 µM [activator, partial curve, poor fit].
In the case of `Cc1sc2ncnc(NCc3ccco3)c2c1C`, the Potency is reported as inconclusive: 2.82 µM [activator, full curve, poor fit].
With `Cn1c(=O)n(C)c2cc(N3CCCCC3)c(NC(=O)c3ccc(C(C)(C)C)cc3)cc21` the “activation” value was inactive: 0.393%.
With `Cc1cc2c(cc(C(=O)OCC(=O)NCc3ccco3)n2C)s1` the “activation” value was inactive: 6.14%.
With `COC(=O)c1ccc(NC2=CC(=O)CC(C)(C)C2)cc1` the Potency was inconclusive: 35.5 µM [activator, single point].
For `Oc1ccc(N=Cc2ccc(OCc3ccccc3)cc2)cc1`, the Potency was active: 14.1 µM.
For `O=C(CCN1CCOCC1)c1ccc(Cl)cc1`, the Potency was inconclusive: 28.2 µM [activator, single point].
In the case of `Cc1cc(C)n(Cc2ccc(NC(=O)c3nn(C)cc3[N+](=O)[O-])cc2)n1`, the Potency is reported as inconclusive: 31.6 µM [activator, single point].
In the case of `Cc1ccc2cccc(NS(=O)(=O)c3ccccc3)c2n1`, the Potency is reported as inconclusive: 5.62 µM [activator, single point].
With `C/C(=N\OCC(=O)Nc1ccccc1Br)c1cccs1` the Potency was active: 22.4 µM.
In the case of `Nc1ccc(/C=C/C(=O)c2cccs2)cc1`, the Potency is reported as inconclusive: 20 µM [activator, single point].
For `CC(=O)c1ccc2c3c(cccc13)C(=O)N(CCc1ccccc1)C2=O`, the Potency was inconclusive: 11.2 µM [activator, partial curve].
For `Cc1ccc(NCCC(=O)c2cccs2)cc1Cl`, the Potency was inconclusive: 22.4 µM [activator, single point].
In the case of `O=S1(=O)C=C(Sc2nnc(-c3ccccc3)o2)c2ccccc21`, the Potency is reported as inconclusive: 5.62 µM [activator, single point].
In the case of `CC[N+]1(C)CCC(O)(/C=C/c2ccccc2)C(C(=O)/C=C/c2ccccc2)C1` (configuration not stated), the Potency is reported as inconclusive: 5.62 µM [activator, single point].
With `CCc1ccc(C2c3[nH]c4ccccc4c3CCN2C(=O)CNC(N)=O)cc1` (configuration not stated) the “activation” value was inactive: 2.76%.
In the case of `COc1cc(/C=N\Nc2cc(=O)n(C)c(=O)n2C)ccc1O`, the Potency is reported as inconclusive: 12.6 µM [activator, partial curve].
For `CCOC(=O)c1c(C)n(C)c2ccc(OCC(O)Cn3c(C)nc4ccccc43)cc12` (configuration not stated), the “activation” value was inactive: 0.229%.
In the case of `CCOC(=O)c1ccc(N2C(=O)C3C(C2=O)C(C(=O)c2ccc(Cl)cc2)N2CCCC32)cc1` (configuration not stated), the Potency is reported as active: 14.1 µM.
With `Fc1cccc(Cl)c1/C=N/Nc1ccccn1` the Potency was inconclusive: 2.82 µM [activator, full curve, poor fit].
For `C=C(C)CN=c1scc(C)n1/N=C/c1ccco1`, the Potency was active: 12.6 µM.
For `Cc1ccc(S(=O)(=O)N(C)C)cc1NC(=O)COC(=O)/C(=C/c1ccc(F)cc1)c1cccs1`, the Potency was inconclusive: 20 µM [activator, single point].

Source: PubChem BioAssay AID624171 (National Center for Advancing Translational Sciences (NCATS), 2012)
Potency means the concentration at half of the fitted maximal effect; tags describe the fitted curve by direction and shape.
